Where two headings read alike, the source gives them in different places.
Tests used:
[1] = Plasma pharmacokinetics of BNM-III-170 in SHIV AD8-EO-infected RMs (HPLC-MS/MS); assay type: in vivo, Macaca mulatta; settings: first dose of each treatment cycle
Experimental: Plasma concentrations of BNM-III-170 in SHIV-infected animals were measured via liquid chromatography and mass spectrometry at several timepoints following each BNM-III-170 dose for all treatment cycles.

[2] = system: CEM.NKr-CCR5-sLTR-Luc cells infected with SHIV AD8-EO; assay type: cell-based
[3] = system: target cells infected with SHIV AD8-EO; assay type: cell-based
[4] = in vivo
ADCC = settings: cited from earlier work
HIV-1 = settings: mouse, in vivo; cited from earlier work
SHIV AD8-EO [5] = assay: Viral infectivity / neutralization assay in TZM-bl cells with SHIV variants; settings: 2 µM BNM-III-170 (Fig. 2B)
SHIV AD8-EO [6] = assay: TZM-bl neutralization of SHIV AD8-EO by plasma from BNM-III-170-treated RMs; settings: 2 × 36 mg/kg, 1 day interval treatment cycle; including plasma 24 h after administration

Compound: CNCc1ccc2c(c1)C[C@H](CN=C(N)N)[C@H]2NC(=O)C(=O)Nc1ccc(Cl)c(F)c1.O=C(O)C(F)(F)F.O=C(O)C(F)(F)F [BNM-III-170]
- time of peak plasma level [1]: ≤ 1.5 h
- exposure of 17b mAb epitope on infected cells [2]: induce conformational changes that exposed the 17b mAb epitope
- sensitization of infected target cells to ADCC in the presence of plasma from PWH [3]: sensitize target cells infected with SHIV AD8-EO to ADCC
- max plasma concentrations (Cmax) [4]: 1900 to 15300 ng/mL
- plasma half-life [4]: 3 to 6 h
- time of peak plasma level [4]: 30 to 120 min
- time plasma levels maintained above estimated effective concentration for ADCC of 0.675 µg/mL [4]: 8 to 12 h
- estimated effective concentration for ADCC (ADCC): 0.675 µg/mL
- HIV-1 DNA levels in CD4+ T cells from peripheral blood, spleen, mucosa, and liver (HIV-1): reduce HIV-1 DNA levels in CD4+ T cells
- sustained plasma concentrations during the treatment cycle (HIV-1): above 200 ng/mL
- time to viral rebound (HIV-1): significant delay in time to viral rebound
- sensitization to neutralization by non-neutralizing anti-V3 CD4i 19b antibody (SHIV AD8-EO [5]): sensitize SHIV AD8-EO to neutralization
- neutralization of SHIV AD8-EO by RM plasma collected after BNM-III-170 administration (SHIV AD8-EO [6]): SHIV AD8-EO was neutralized by RM plasma

Reference: PMC12090809 (Journal of Virology, 2025)
